In all, about 340,000 compounds went through this assay and about 6,900 (2%) were called active. No stated cut-off is given here; in the data, active means inhibition above about 30%; inactive means below that, where a call was filed. The entries are a selection whose mix differs from that of the whole data set. Entries without a call were filed so in the source.
Each molecule was assayed against D(2) dopamine receptor (Homo sapiens) (UniProt P14416) (assay: HTS Assay for Allosteric Antagonists of the Human D2 Dopamine Receptor: Primary Screen for Antagonists). Details: HEK293 TREx D2 cells, calcium flux, dopamine EC80; at 10 µM; stronger effect = higher value.
UniProt P14416, sequence (P14416 whole entry, looked up): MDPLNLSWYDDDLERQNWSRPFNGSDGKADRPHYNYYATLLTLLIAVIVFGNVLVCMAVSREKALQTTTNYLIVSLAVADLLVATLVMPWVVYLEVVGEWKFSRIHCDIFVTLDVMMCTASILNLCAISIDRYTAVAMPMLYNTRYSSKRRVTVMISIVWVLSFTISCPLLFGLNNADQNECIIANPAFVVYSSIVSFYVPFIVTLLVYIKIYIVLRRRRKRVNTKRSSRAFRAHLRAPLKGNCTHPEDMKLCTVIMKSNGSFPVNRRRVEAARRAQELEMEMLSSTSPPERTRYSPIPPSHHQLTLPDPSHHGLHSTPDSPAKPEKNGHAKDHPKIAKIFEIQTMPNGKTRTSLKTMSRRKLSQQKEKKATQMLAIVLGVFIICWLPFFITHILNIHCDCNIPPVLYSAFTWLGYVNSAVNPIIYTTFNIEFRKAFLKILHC
How it was run: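 Cells plated overnight at 30 C with tetracycline; no-wash calcium dye, 30–90 min RT; 10 s baseline; compound pinned; 180 s read; EC80 dopamine added; another 180 s read.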
Further: 0% is about no effect.

| Compound | inhibition |
| --- | --- |
| COc1ccc(CCNS(=O)(=O)c2ccc3c(c2)c(=O)n(C)c(=O)n3C)cc1OC | -22.7% |
| CCc1ccc(NC(=O)CC2C(=O)N(c3cccc(C)c3)C(=O)N2Cc2cccc(OC)c2)cc1 (stereo not drawn) | 16% |
| Cc1[nH]c(=O)[nH]c(=O)c1S(=O)(=O)Nc1cccc(Cl)c1C | 13.6% |
| CCOc1ccc(CNC(=O)Cn2nc(C)c3nn(-c4ccc(Cl)cc4)c(C)c3c2=O)cc1 | -6.36% |
| CCS(=O)(=O)c1ccc2oc(SCC(=O)NCCC3=CCCCC3)nc2c1 | active: 67.5% |
| Cc1oc2ncnc(N3CCCCC3)c2c1C(=O)NCC1CCN(Cc2ccccc2F)CC1 | 8.81% |
| Cc1ccc(CNC(=O)c2oc3ccc(S(=O)(=O)N4CCCC(C)C4)cc3c2C)cc1 (stereo not drawn) | -8.2% |
| CCC(=O)NNc1ncnc2c1cnn2C | active: 47.6% |
| COc1ccccc1NC(=O)c1sc2nc(-c3cc4cc(Cl)ccc4oc3=O)[nH]c(=O)c2c1C | -10.2% |
| COc1ccc(NC(=O)C2=C(C)Nc3nc(SCc4ccc(C)cc4C)nn3C2c2cccc(OC)c2OC)cc1 (stereo not drawn) | 4.25% |
| Cc1cc(-c2ccc(S(=O)(=O)Nc3ccccc3C)cc2)on1 | 5.92% |
| O=C(Nc1ccc(F)cc1)C1CCN(c2nc3ccccc3nc2C(F)(F)F)CC1 | -12% |
| COc1ccc(-c2noc(CC(=O)N(C)c3ccccc3F)n2)cc1 | -14.6% |
| CCn1c(SC)nc2c([nH]c3ccccc32)c1=O | 4.48% |
| COc1ccc(CNC(=O)c2ccc3c(c2)N=C(C)c2c(C)ccc(C)c2S3)cc1 | 11.2% |
| Cc1cc(C)cc(NC(=O)CC(C)n2nc(C)cc2C)c1 (stereo not drawn) | 5.24% |
| CCN(CC)c1ccc(NC(=O)CN2CCN(S(=O)(=O)c3ccc(C(C)C)cc3)CC2)cc1 | -11% |
| O=C(Cn1ccc2cc(S(=O)(=O)N3CCCC3)ccc21)NCc1ccc(Cl)cc1 | -13.3% |
| COc1cc(NC(=O)Cn2c(=O)n(Cc3ccccc3)c(=O)c3oc4ccccc4c32)cc(OC)c1 | 4.23% |
| CCOC(=O)c1c(S(=O)(=O)N2CCC(C(=O)Nc3ccc(C)cn3)CC2)c(C)n(C)c1C | 2.33% |
| COc1ccc(-n2cc(C(=O)NCCc3ccc(C)cc3)c3ccccc3c2=O)cc1 | -9.4% |
| CCOC(=O)C1(CCc2ccccc2)CCN(Cc2c(O)cccc2OC)CC1 | active: 36.7% |
| CC1CCCCN1C(=O)CSc1nc2ccccc2nc1Cc1ccccc1 (stereo not drawn) | -11.4% |
| COC(=O)c1ccc(C2CC(=O)Nc3c2c(C)nn3-c2nc(C)cc(C)n2)cc1 (stereo not drawn) | 10.4% |
| CCOc1ccc(N2C(=O)c3[nH]nc(-c4ccccc4)c3C2c2ccc(O)c(OC)c2)cc1 (stereo not drawn) | -6.89% |

| Compound | inhibition |
| --- | --- |
| Cc1nc(N2CCOCC2)c2c(C(=O)N3CCN(c4cc(Cl)ccc4C)CC3)c(C)oc2n1 | 13.3% |
| CCOc1c(CC2C(=O)Nc3ccc(Br)cc32)cccc1OC (stereo not drawn) | 4.94% |
| COc1ccc(CNC(=O)C2CCCCN2S(=O)(=O)c2ccc(F)cc2)cc1 (stereo not drawn) | 13.4% |
| O=C(CN1C(=O)C2CCCCN2c2ccc(C(=O)N3CCCC3)cc21)NCc1ccc(F)cc1 (stereo not drawn) | 20.1% |
| CCOc1ccccc1CNc1ncnc2onc(-c3ccc(F)cc3)c12 | -8.07% |
| CCCNC(=O)CN1C(=O)COc2ccc(S(=O)(=O)N3CCCC3)cc21 | -16.8% |
| CCN1CCC(N(Cc2ccc(F)cc2)C(=O)Nc2cc(C)ccc2C)CC1 | -2.05% |
| CC1CCN(CC(=O)N2CCCc3c2c(=O)oc2ccc(OCc4ccccc4)cc32)CC1 | 3.31% |
| CC1(C(=O)Nc2cccc(C(F)(F)F)c2)Cc2ccccc2C(=O)O1 (stereo not drawn) | -0.388% |
| COc1cccc(CN2CCN(C(=O)c3ccco3)CC2)c1 | active: 81.9% |
| COc1ccc(C(c2c(C)n(C)n(-c3ccccc3)c2=O)c2c(C)n(C)n(-c3ccccc3)c2=O)cc1O | -7.45% |
| Cc1ccc(N2CC(NC(=O)Cc3cccs3)CC2=O)cc1 (stereo not drawn) | -0.0495% |
| CCOc1cccc2sc(N(Cc3cccnc3)C(=O)c3ccco3)nc12 | -13.5% |
| COc1cc(OC)c(NC(=O)Nc2nnc(N(C)C3CCCCC3)s2)cc1Cl | -16.8% |
| CC1=C(C(=O)Nc2c(C)cc(C)cc2C)C2(CCN(C(C)C)CC2)OC1=O | -13.1% |
| COc1ccc(CCNC(=O)c2cnc3sc(N4CCCCCC4)nn3c2=O)cc1OC | 0.38% |
| CCOCCCNC(=O)C(c1ccc(OC)cc1)N(Cc1cccs1)C(=O)c1ccccc1O (stereo not drawn) | 3.2% |
| CC(C)CCN1C(=O)N(c2ccccc2)C(=O)C1CC(=O)Nc1ccc(Cl)cc1 (stereo not drawn) | -3.27% |
| Cc1ccc(Sc2ccc(N3CCCC(C(=O)Nc4ccc(Cl)cc4)C3)nn2)cc1 (stereo not drawn) | 14.1% |
| CC(C)NC(=O)CSc1nc2ccccc2nc1N1CCCCC1 | 20.9% |
| O=C(NC1CCCC1)c1ccc2nc(-c3ccco3)c(-c3ccco3)nc2c1 | active: 33.3% |
| CCOc1ccc(C(=O)NCCc2sc(-c3ccc(C)cc3)nc2C)cc1 | -13% |
| Cc1ccccc1OCCC(=O)N1CCN(S(=O)(=O)c2ccc(Br)cc2)CC1 | active: 54.7% |
| Cc1ccc(CCNC(=O)c2ccc(CS(=O)(=O)c3ccc(Br)cc3)o2)cc1 | 27.7% |
| Cc1ccc2c(CC(=O)N3CCN(c4cccc(Cl)c4)CC3)coc2c1 | 11.7% |

| Compound | inhibition |
| --- | --- |
| CCCCNc1ccc(-c2nc(-c3ccccc3)no2)cc1[N+](=O)[O-] | -0.0967% |
| CSc1ncc(Cl)c(C(=O)NCc2ccc(C)cc2)n1 | 14.7% |
| COc1ccc(C2C(=O)N(C3CCC(C)CC3)CC(=O)N2Cc2ccc(C)cc2)cc1OC (stereo not drawn) | 12.8% |
| O=S(=O)(Nc1ccc(F)c(C(F)(F)F)c1)c1ccc(N2CCCCS2(=O)=O)cc1 | -5.66% |
| COc1ccc(OC)c(CNS(=O)(=O)c2c(C(=O)N3CCC(C)CC3)c(C)n(C)c2C)c1 | 18.7% |
| Cc1cc(C)cc(NC(=O)Cn2nnc(C(=O)NCCc3ccccc3)c2N)c1 | 25.5% |
| NC(=O)CSc1nc2ccc(NC(=O)COc3ccccc3)cc2s1 | 20.5% |
| CC1CCC(NC(=O)c2ccc3c(c2)N(Cc2ccccc2F)C(=O)c2ccccc2S3)CC1 (stereo not drawn) | 18.8% |
| CCCn1c(=N)c(C(=O)NC2CCCC2)cc2c(=O)n3cc(C)ccc3nc21 | 9.41% |
| c1ccc(-c2cc(-c3ccccc3)c3c(n2)-c2ccccc2OC3)cc1 | 8.89% |
| Cc1nc2ccc(S(=O)(=O)NC(C(=O)NCc3ccccc3Cl)C(C)C)cc2s1 (stereo not drawn) | 2.67% |
| O=C(CSc1nnc(-c2ccccc2)c(-c2ccccc2)n1)N1CCc2ccccc21 | active: 69% |
| Cc1cccc(NC(c2cccc(F)c2)c2ccc3ccc(C)nc3c2O)n1 (stereo not drawn) | -0.541% |
| Cc1ccc(CCNC(=O)c2cc3c(s2)-c2ccccc2OC3)cc1 | 3.63% |
| Cc1ccc(NC(=O)CN2C(=O)CSc3ccc(S(=O)(=O)N(C)C)cc32)cc1C | 2.17% |
| COC(=O)c1cc2occc2n1Cc1ccc(F)cc1Cl | 15.2% |
| Cc1ccc(CSC2=Nc3ccccc3C3=NC(CCC(=O)NCCc4ccccc4)C(=O)N23)cc1 (stereo not drawn) | -4.91% |
| Cc1ccc(-c2nn(CCC(=O)Nc3ccc(Cl)c(Cl)c3)c(=O)c3ccccc23)cc1 | -8.02% |
| COc1ccc(-c2nc(S(=O)(=O)c3ccc(Cl)cc3)c(N3CCCCCC3)o2)cc1 | 4.45% |
| Cc1ccc(C(=O)NCCSc2c(C)[nH]c3ccccc23)cc1C | -26% |
| CCOc1cc(C2C(C(N)=O)=C(C)Nc3ncnn32)cc(Br)c1O (stereo not drawn) | -16.8% |
| O=C(CCC(=O)c1ccc(F)cc1)Nc1cc(Cl)cc(Cl)c1 | active: 39.1% |
| O=C(CC(c1cccs1)N1Cc2ccccc2C1=O)Nc1ccccc1F (stereo not drawn) | -13.8% |
| CC(CNC(=O)c1sc2ncccc2c1-n1cccc1)c1ccccc1 (stereo not drawn) | -11.8% |
| CC1CCCN(C2=C(Cl)C(=O)N(c3cccc(Cl)c3)C2=O)C1 (stereo not drawn) | active: 44.1% |

| Compound | inhibition |
| --- | --- |
| CC1(C)CC(=O)c2cc(C(=O)Nc3ccc(Cl)cc3)c(=O)[nH]c2C1 | 11.4% |
| O=C(CSc1ccccc1)NNC(=O)c1ccncc1 | active: 57.1% |
| Cc1nc2scc(C)n2c(=O)c1S(=O)(=O)Nc1ccc(N2CCN(C(=O)C(C)C)CC2)cc1 | -24.4% |
| Cc1ccc(NC(=O)C2=CC(c3cccs3)=NS(=O)(=O)N2C)cc1 | -18.3% |
| Nc1nc2nc(-c3ccc(Cl)cc3)cc(C(F)(F)F)n2n1 | 10.4% |
| Cc1ccc(NC(=O)CSc2nc3c(c(=O)[nH]2)CN(Cc2ccccc2)CC3)cc1Cl | -15.1% |
| CC(=O)N1c2ccccc2C(=O)C1N1CCN(c2cccc(C)c2C)CC1 (stereo not drawn) | 11.5% |
| Nc1nonc1-c1nc2ccccc2n1Cc1ccc(Br)cc1 | 16.5% |
| COC(=O)c1c(NC(=O)C2c3ccccc3Oc3ccccc32)sc2c1CCC(C)C2 (stereo not drawn) | -22.2% |
| COc1ccccc1CCNC(=O)Cc1c(C)c2c(O)cc(C)cc2oc1=O | 5.27% |
| COc1cc(-c2cc3n(C)c(C)c(CCC(=O)Nc4ccc(F)cc4)c(=O)n3n2)cc(OC)c1OC | 1.3% |
| COc1ccc(Cn2c(=O)c3oc4ccccc4c3n(Cc3ccccc3)c2=O)cc1 | 7.53% |
| CCOC(=O)c1[nH]c(C)c(CCC(=O)NCc2cccc(Cl)c2)c1C | 2.72% |
| Cc1ccc(OCCSc2nc(-c3cccs3)nc3cc(=O)[nH]n23)cc1Cl | 4.45% |
| O=C(CSc1c2c(nc3ccccc13)CCC2)Nc1ccc(F)cc1F | -0.104% |
| CCc1cc(=O)oc2cc(C)c3c(-c4ccc(F)cc4)coc3c12 | 8.16% |
| COc1ccccc1N1CCN(C2CCCN(S(=O)(=O)c3ccc(C)cc3)C2)CC1 (stereo not drawn) | active: 66.5% |
| Cc1ccc(S(=O)(=O)N2CCC(C(=O)Nc3cc(C)ccc3C)CC2)cc1 | 4.68% |
| COc1ccccc1-c1c(C(F)(F)F)oc2c(CN3CCCCC3C)c(O)ccc2c1=O (stereo not drawn) | 9.45% |
| Cc1ccccc1CN1C(=O)c2ccccc2Sc2ccc(C(=O)N3CCOCC3)cc21 | 24.5% |
| Cc1cccc(-c2nc(-c3ccc4c(c3)[nH]c(=O)n4C)no2)c1 | -2.58% |
| S=C(Nc1ccc(Cl)cc1)NC1CCN(Cc2ccccc2)CC1 | active: 69.4% |
| CCN1C(=O)c2ccccc2S(=O)c2ccc(C(=O)N3CCN(c4ccc(F)cc4)CC3)cc21 (stereo not drawn) | -15.2% |

Source: PubChem BioAssay AID485344 (National Center for Advancing Translational Sciences (NCATS), 2010)
